Assay results taken from patent US20250057968A1, “ANTI-DLL3 ANTIBODY AND PHARMACEUTICAL USE THEREOF, AND ANTIBODY-DRUG CONJUGATE CONTAINING ANTI-DLL3 ANTIBODY” (Jiangsu Hengrui Pharmaceuticals Co., Ltd., priority 2021, published 2025).

T1: human DLL3 (Homo sapiens, UniProt Q9NYJ7)
T1 construct: purchased ACRO DLL3-H52H4
T1 sequence (Q9NYJ7 27-492 limits assumed): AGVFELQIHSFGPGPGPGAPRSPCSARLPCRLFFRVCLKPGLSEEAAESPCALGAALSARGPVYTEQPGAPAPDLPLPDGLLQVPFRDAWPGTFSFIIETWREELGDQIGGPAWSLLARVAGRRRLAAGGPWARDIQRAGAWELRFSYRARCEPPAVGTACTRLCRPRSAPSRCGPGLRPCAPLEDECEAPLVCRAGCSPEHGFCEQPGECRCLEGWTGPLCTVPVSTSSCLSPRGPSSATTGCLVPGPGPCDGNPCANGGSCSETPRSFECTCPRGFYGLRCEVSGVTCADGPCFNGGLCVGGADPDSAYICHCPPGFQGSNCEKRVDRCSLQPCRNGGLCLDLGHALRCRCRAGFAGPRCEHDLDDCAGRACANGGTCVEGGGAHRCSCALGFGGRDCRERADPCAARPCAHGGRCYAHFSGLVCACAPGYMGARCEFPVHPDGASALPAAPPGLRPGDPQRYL


Target: T1, human DLL3
Test: Biacore antibody affinity assay, human DLL3
Format: binding
From the text: Test antibodies were affinity-captured with a Protein A biosensor chip (Cat. #29127556, Cytiva) for 18 seconds, and then the antigens human DLL3 (ACRO, DLL3-H52H4), cynomolgus monkey DLL3 (KACTUS, DLL-RM103), and mouse DLL3 (KACTUS, DLL-MM103) were allowed to flow over the surface of the chip for 180 seconds, followed by 600 seconds of dissociation. Reaction signals were detected in real time using a Biacore 8K (Cytiva) instrument to obtain association and dissociation curves. After the dissociation in each experimental cycle, the biosensor chip was washed and regenerated with a 10 mM glycine-hydrochloric acid solution (pH 1.5) (Cat. #BR-1003-54, Cytiva). A 1:1 model was fit to the data. The results are shown in Table 12-1, Table 12-2, and Table 12-3.

Molecule	ka [M⁻¹ s⁻¹]	kd [s⁻¹]
hAb6L2H3: humanized antibody of mAb6: hAb6VH3 (SEQ ID NO: 34) + hAb6VL2 (SEQ ID NO: 46), constant regions SEQ ID NO: 28/29 (antibody) heavy: EVQLVQSGAEVKKPGASVKVSCKASGYTFTDYYMNWVRQAPGQRLEWIGIINPYSGVTIYNHKFKGRATLTVDKSANTAYMELSSLRSEDTAVYYCARQDSLLDYAMDYWGQGTTVTVSS[human IgG1 constant region not written out] light: DIQMTQSPSSLSASVGDRVTITCHASQGISGNMGWLQQKPGKAPKGLIYHGANLEDGVPSRFSGSGSGADYTLTISSLQPEDFATYYCVQYAQFPYTFGGGTKVEIKRTVAAPSVFIFPPSDEQLKSGTASVVCLLNNFYPREAKVQWKVDNALQSGNSQESVTEQDSKDSTYSLSSTLTLSKADYEKHKVYACEVTHQGLSSPVTKSFNRGEC	695000	0.00139
hAb6L2H11: humanized antibody of mAb6: hAb6VH11 (SEQ ID NO: 42) + hAb6VL2 (SEQ ID NO: 46), constant regions SEQ ID NO: 28/29 (antibody) heavy: EVQLVQSGSELKKPGASVKVSCKASGYTFTDYYMNWVKQAPGQGLEWMGIINPYSGVTIYNHKFKGRFVLSVDKSSNTAYLQISSLKAEDTAVYYCARQDSLLDYAMDYWGQGTTVTVSS[human IgG1 constant region not written out] light: DIQMTQSPSSLSASVGDRVTITCHASQGISGNMGWLQQKPGKAPKGLIYHGANLEDGVPSRFSGSGSGADYTLTISSLQPEDFATYYCVQYAQFPYTFGGGTKVEIKRTVAAPSVFIFPPSDEQLKSGTASVVCLLNNFYPREAKVQWKVDNALQSGNSQESVTEQDSKDSTYSLSSTLTLSKADYEKHKVYACEVTHQGLSSPVTKSFNRGEC	2.06e+06	0.000749
hAb6L2H7: humanized antibody of mAb6: hAb6VH7 (SEQ ID NO: 38) + hAb6VL2 (SEQ ID NO: 46), constant regions SEQ ID NO: 28/29 (antibody) heavy: EVQLVESGGGLVQPGGSLKLSCAASGYTFTDYYMNWVRQASGKGLEWVGIINPYSGVTIYNHKFKGRFTLSVDKSKNTAYLQMNSLKTEDTAVYYCARQDSLLDYAMDYWGQGTTVTVSS[human IgG1 constant region not written out] light: DIQMTQSPSSLSASVGDRVTITCHASQGISGNMGWLQQKPGKAPKGLIYHGANLEDGVPSRFSGSGSGADYTLTISSLQPEDFATYYCVQYAQFPYTFGGGTKVEIKRTVAAPSVFIFPPSDEQLKSGTASVVCLLNNFYPREAKVQWKVDNALQSGNSQESVTEQDSKDSTYSLSSTLTLSKADYEKHKVYACEVTHQGLSSPVTKSFNRGEC	670000	0.00205
hAb6L2H5: humanized antibody of mAb6: hAb6VH5 (SEQ ID NO: 36) + hAb6VL2 (SEQ ID NO: 46), constant regions SEQ ID NO: 28/29 (antibody) heavy: EVQLVQSGSELKKPGASVKVSCKASGYTFTDYYMNWVRQAPGQGLEWMGIINPYSGVTIYNHKFKGRFVLSVDKSVSTAYLQISSLKAEDTAVYYCARQDSLLDYAMDYWGQGTTVTVSS[human IgG1 constant region not written out] light: DIQMTQSPSSLSASVGDRVTITCHASQGISGNMGWLQQKPGKAPKGLIYHGANLEDGVPSRFSGSGSGADYTLTISSLQPEDFATYYCVQYAQFPYTFGGGTKVEIKRTVAAPSVFIFPPSDEQLKSGTASVVCLLNNFYPREAKVQWKVDNALQSGNSQESVTEQDSKDSTYSLSSTLTLSKADYEKHKVYACEVTHQGLSSPVTKSFNRGEC	810000	0.000784
hAb6L2H6: humanized antibody of mAb6: hAb6VH6 (SEQ ID NO: 37) + hAb6VL2 (SEQ ID NO: 46), constant regions SEQ ID NO: 28/29 (antibody) heavy: EVQLVQSGSELKKPGASVKVSCKASGYTFTDYYMNWVRQAPGQGLEWMGIINPYSGVTIYNHKFKGRFVLSVDKSSNTAYLQISSLKAEDTAVYYCARQDSLLDYAMDYWGQGTTVTVSS[human IgG1 constant region not written out] light: DIQMTQSPSSLSASVGDRVTITCHASQGISGNMGWLQQKPGKAPKGLIYHGANLEDGVPSRFSGSGSGADYTLTISSLQPEDFATYYCVQYAQFPYTFGGGTKVEIKRTVAAPSVFIFPPSDEQLKSGTASVVCLLNNFYPREAKVQWKVDNALQSGNSQESVTEQDSKDSTYSLSSTLTLSKADYEKHKVYACEVTHQGLSSPVTKSFNRGEC	863000	0.000756

Now from value to molecule:

ka [M⁻¹ s⁻¹]	kd [s⁻¹]	Molecule
2.1e+06	0.000803	hAb6L2H13: humanized antibody of mAb6: hAb6VH13 (SEQ ID NO: 44) + hAb6VL2 (SEQ ID NO: 46), constant regions SEQ ID NO: 28/29 (antibody) heavy: EVQLVQSGSELKKPGASVKVSCKASGYTFTDYYMNWVKQAPGQGLEWMGIINPYSGVTIYNHKFKGRFALSVDKSSNTAYLQISSLKAEDTAVYYCARQDSLLDYAMDYWGQGTTVTVSS[human IgG1 constant region not written out] light: DIQMTQSPSSLSASVGDRVTITCHASQGISGNMGWLQQKPGKAPKGLIYHGANLEDGVPSRFSGSGSGADYTLTISSLQPEDFATYYCVQYAQFPYTFGGGTKVEIKRTVAAPSVFIFPPSDEQLKSGTASVVCLLNNFYPREAKVQWKVDNALQSGNSQESVTEQDSKDSTYSLSSTLTLSKADYEKHKVYACEVTHQGLSSPVTKSFNRGEC
715000	0.00144	hAb6L3H1: humanized antibody of mAb6: hAb6VH1 (SEQ ID NO: 32) + hAb6VL3 (SEQ ID NO: 47), constant regions SEQ ID NO: 28/29 (antibody) heavy: EVQLVQSGAEVKKPGASVKVSCKASGYTFTDYYMNWVRQAPGQRLEWMGIINPYSGVTIYNHKFKGRVTITVDKSASTAYMELSSLRSEDTAVYYCARQDSLLDYAMDYWGQGTTVTVSS[human IgG1 constant region not written out] light: DIQMTQSPSSLSASVGDRVTITCHASQGISGNMGWLQQKPGKSFKGLIYHGANLEDGVPSRFSGSGSGADYTLTISSLQPEDFATYYCVQYAQFPYTFGGGTKVEIKRTVAAPSVFIFPPSDEQLKSGTASVVCLLNNFYPREAKVQWKVDNALQSGNSQESVTEQDSKDSTYSLSSTLTLSKADYEKHKVYACEVTHQGLSSPVTKSFNRGEC
1.98e+06	0.000913	hAb6L2H12: humanized antibody of mAb6: hAb6VH12 (SEQ ID NO: 43) + hAb6VL2 (SEQ ID NO: 46), constant regions SEQ ID NO: 28/29 (antibody) heavy: EVQLVQSGSELKKPGASVKVSCKASGYTFTDYYMNWVRQAPGQGLEWMGIINPYSGVTIYNHKFKGRFALSVDKSSNTAYLQISSLKAEDTAVYYCARQDSLLDYAMDYWGQGTTVTVSS[human IgG1 constant region not written out] light: DIQMTQSPSSLSASVGDRVTITCHASQGISGNMGWLQQKPGKAPKGLIYHGANLEDGVPSRFSGSGSGADYTLTISSLQPEDFATYYCVQYAQFPYTFGGGTKVEIKRTVAAPSVFIFPPSDEQLKSGTASVVCLLNNFYPREAKVQWKVDNALQSGNSQESVTEQDSKDSTYSLSSTLTLSKADYEKHKVYACEVTHQGLSSPVTKSFNRGEC
